Laboratory results reported in PubChem BioAssay AID1347071 (National Center for Advancing Translational Sciences (NCATS), 2019).
Screen size: about 410,000 compounds; about 260 (0.063%) were called active. Inconclusive results, whose numbers are uncertain, are shown with a selection of clear calls. Calls come from the whole dose curve; as a rule, active = well fitted activation curve with a large enough effect; inconclusive = small, poorly fitted or top-dose-only effect; inactive = no such curve, though single readings can be large or run the other way. No potency is given beside an inconclusive call; the fits are too rough.

Experiment: qHTS for compounds that reverse cellular toxicity of Amyloid beta (A-beta) peptide in yeast: Primary Screen; note: nearly all actives have a fitted effect of over 55% in size
Conditions: yeast expressing A-beta42, growth rescue, OD600, 48 h; growth rescue: at 46.1 µM (top of the series), 0% DMSO, 100% iron-clioquinol control
In short: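 Growth rescue measured by 600 nm absorbance after 48 h yeast culture at 30 C with compound. Values normalized between DMSO and an equimolar ferric chloride plus clioquinol control.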
Potency is the fitted concentration of half-maximal effect; tags give direction and shape of the fitted curve.

SMILES | Potency | growth rescue
CCN(CC)c1ccc(/C=c2\sc3nc4ccccc4n3c2=O)c(O)c1 | inconclusive [activator, partial curve, poor fit] | 
CN(C)c1ccc(C(=S)Nc2ccccc2)cc1 | inconclusive [activator, full curve, poor fit] | 
O=C(Nc1nnc(-c2ccccn2)o1)c1cccc(Cl)c1 | inconclusive [activator, partial curve] | 
CC1CC(C)CN(C(=S)NC2CCCCC2)C1 (stereo not drawn) | inconclusive [activator, partial curve] | 
CC(C)CCNC(=O)c1cnc2sc(N3CCCCCC3)nn2c1=O |  | inactive: -29.9%
CCOC(=O)C(C)Oc1ccc(NC(=O)C(Cl)(Cl)Cl)cc1 (stereo not drawn) | inconclusive [activator, partial curve, poor fit] | 
CCOC(=O)C1CCCN(C(=O)c2ccc3c(c2)N(C)C(=O)/C(=C/c2ccccc2Cl)S3)C1 (stereo not drawn) | inconclusive [activator, partial curve, poor fit] | 
O=C(CSCc1ccc(F)cc1)NCc1ccc2c(c1)OCO2 | inconclusive [activator, single point] | 
CCCCNc1c(-c2cccc(-c3ccc(OC)cc3)c2)nc2ccc(C)cn12 |  | inactive: -79.4%
O=C(COc1ccccc1Cl)NC(=S)N1CCc2ccccc21 | inconclusive [activator, full curve, poor fit] | 
S=C(N/N=C/c1ccc2c(c1)OCO2)NC1CC2CCC1C2 (stereo not drawn) | inconclusive [activator, single point] | 
CCCc1cc(-c2nc(N)ncc2-c2csc(C)n2)c(O)cc1OC |  | inactive: -22.7%
COc1cccc(C(C)(O)c2nc(-c3cccc4cccnc34)cs2)c1 (stereo not drawn) | inconclusive [activator, single point] | 
CC(C)CC(=O)NC(=S)NCc1ccccc1 | inconclusive [activator, partial curve] | 
Cc1cccc(N2CCN(C(=O)C3CCN(C(=O)c4cc5sccc5n4C)CC3)CC2C)c1 (stereo not drawn) | inconclusive [activator, single point] | 
O=C(COc1ccccc1Cl)NC(=O)NC1CCCCC1 | inconclusive [activator, partial curve, poor fit] | 
Nc1ccc2nc(-c3cccc(-c4nc5ccc(N)cc5[nH]4)c3)[nH]c2c1 | inconclusive [activator, single point] | 
COc1ccccc1NC(=S)N1CCN(c2cccc(C)c2C)CC1 | inconclusive [activator, full curve, poor fit] | 
COc1ccc(CCN2C(=O)c3[nH]nc(-c4ccccc4O)c3C2c2cccc(O)c2)cc1OC (stereo not drawn) |  | inactive: 16.2%
Nc1nc(CSC(=S)N2CCN(c3ccccc3)CC2)nc(Nc2ccc(F)cc2)n1 | inconclusive [activator, full curve] | 
CC(Oc1cccc(Cl)c1)C(=O)Nc1nc(-c2ccccn2)cs1 (stereo not drawn) | inconclusive [activator, single point] | 
Cc1c(C(=O)N(Cc2ccc(Cl)cc2)C2CCS(=O)(=O)C2)oc2ccccc12 (stereo not drawn) |  | inactive: 25.9%
COc1ccc2c(c1)c1c(c(=O)n(-c3ccccc3C)c(=O)n1Cc1cccc(C(F)(F)F)c1)n2C |  | inactive: -5.21%

SMILES | Potency | growth rescue
CCOc1ccccc1NC(=O)C(OC(=O)c1cnc(C)cn1)c1ccccc1 (stereo not drawn) | inconclusive [activator, partial curve] | 
CCOC(=O)N/N=C/c1c(C)nn(-c2cccc(C(F)(F)F)c2)c1Cl | inconclusive [activator, full curve, poor fit] | 
Cc1ccccc1NC(=O)c1cccc(S(=O)(=O)Oc2ccc([N+](=O)[O-])cc2)c1 | inconclusive [activator, partial curve] | 
Cc1ccc(NC(=O)Cn2c(=O)n(Cc3ccccc3)c(=O)c3sc4ccccc4c32)cc1 |  | inactive: -8.57%
CC1CC(C)CN(S(=O)(=O)c2ccc3c(c2)CC(C)N3C(=O)C2CCC2)C1 (stereo not drawn) |  | inactive: -5.1%
COCCn1c(=S)[nH]c2sc3c(c2c1=O)CCCC3 | inconclusive [activator, partial curve, poor fit] | 
CCOc1cc(/C=N/NC(=O)c2ccccc2OCc2ccc(F)cc2)ccc1O |  | inactive: -5.88%
CN(C(=O)c1ccc2c(c1)N(Cc1cccc(Cl)c1)C(=O)c1ccccc1S2(=O)=O)C1CCCCC1 |  | inactive: 1.53%
COc1ccc(N2C(=O)CC(Sc3nc(C)c4c(n3)CCCC4)C2=O)cc1 (stereo not drawn) |  | inactive: 13.8%
Cc1ccc(-c2nc3c(c(SCc4ccc(Br)cc4)n2)Cc2c(CO)cnc(C)c2O3)cc1 |  | inactive: 0.961%
CCSc1nn(CC(=O)Nc2cccc(CC)c2)c(N)c1S(=O)(=O)c1ccccc1 |  | inactive: -1.7%
CSc1nc2sc3c(c2c(=S)[nH]1)CC(C)(C)OC3 | inconclusive [activator, partial curve, poor fit] | 
CC(=O)N1c2ccccc2C(=O)C1N1CCN(c2ccccc2F)CC1 (stereo not drawn) | inconclusive [activator, partial curve, poor fit] | 
CCCCCC(=O)NNC(=S)NC(=O)c1ccccc1[N+](=O)[O-] | inconclusive [activator, single point] | 
COc1ccc(NC(=O)Nc2cc(NC(=O)Nc3ccc(OC)cc3)c(C)nc2C)cc1 | inconclusive [activator, partial curve] | 
CCn1c(CCCOc2ccc(Cl)cc2Cl)n[nH]c1=S | inconclusive [activator, partial curve, poor fit] | 
COCCCN(C(=S)Nc1cc(Cl)cc(Cl)c1)C(C)c1ccccn1 (stereo not drawn) | inconclusive [activator, single point] | 
Cc1cccc(OCC(=O)Nc2cccc(OCc3cc(=O)n4cccc(C)c4n3)c2)c1 |  | inactive: -3.47%
COc1ccc(CNC(=S)Nc2ccccc2Cl)cc1 | inconclusive [activator, single point] | 
O=C(O)c1cnc(-c2ccccc2)nc1C(F)(F)F |  | inactive: 1.16%
CCCCC(CC)CNS(=O)(=O)c1ccc2c(c1)CCN2C(=O)CCC(=O)O (stereo not drawn) | inconclusive [activator, partial curve] | 
CCc1cccc(NC(=O)C2CCCN(c3ncnc4onc(-c5ccc(F)cc5)c34)C2)c1 (stereo not drawn) |  | inactive: -24.4%
COc1ccc(-c2nnc(SCC(=O)c3ccco3)n2-c2ccccc2)cc1 | inconclusive [activator, partial curve, poor fit] | 

SMILES | Potency | growth rescue
CCc1ccc(C2CC(c3ccccc3)n3ncnc3N2)cc1 (stereo not drawn) | inconclusive [activator, partial curve, poor fit] | 
S=C1NC(C23CC4CC(CC(C4)C2)C3)=CC(c2ccc3c(c2)OCO3)N1 (stereo not drawn) | inconclusive [activator, partial curve, poor fit] | 
Oc1ccc(Oc2ccc(Oc3ccc(O)cc3)cc2)cc1 |  | inactive: 9.07%
O=C(c1cc(Cl)c(=O)n(Cc2ccccc2)c1)N1CCOCC1 |  | inconclusive: 30.9% [activator]
Cc1ccc(-c2nnn(CC(=O)NC(=O)NC3CCCCC3)n2)cc1 | inconclusive [activator, partial curve, poor fit] | 
CC(=O)C(N=Nc1ccccc1)(Sc1nnc(-c2ccccc2)n1-c1ccccc1)C(C)=O | inconclusive [activator, single point] | 
COCCN(Cc1ccccc1)C(=S)Nc1ccc(OC(F)F)cc1 | inconclusive [activator, single point] | 
O=C(Nc1cccc(NC(=O)C2CCCO2)c1)c1ccco1 (stereo not drawn) | inconclusive [activator, single point] | 
CC(C)(C)c1ccc(OCCCC(=O)NNC(=O)c2ccccc2O)cc1 | inconclusive [activator, partial curve, poor fit] | 
Cc1c(C(=O)NCc2ccc(F)cc2)oc2ccc(S(=O)(=O)N3CCCCC3)cc12 |  | inactive: 1.88%
CC(C)c1ccc(NC(=O)C2CCN(C(=O)c3ccc(F)cc3)CC2)cc1 | inconclusive [activator, single point] | 
COc1ccc(OCC(=O)NC2CCSc3ccccc32)cc1 (stereo not drawn) | inconclusive [activator, full curve] | 
COc1ccc(-c2nn3c(C4CCCCC4)nnc3s2)cc1OC |  | inactive: -9.29%
Cc1nc([N+](=O)[O-])c(NCCO)n1Cc1ccccc1 |  | inactive: -7.23%
Cc1cccc(Cc2cccc(C)c2O)c1O | inconclusive [activator, single point] | 
COc1ccc(C=NNC(=S)NN=Cc2ccc(OC)c(OC)c2)cc1OC | inconclusive [activator, partial curve, poor fit] | 
CC(=O)c1cnc2cc(-c3ccc(Cl)cc3)nn2c1C |  | inactive: -5.5%
C/C(=N\NC(=O)c1nnn(-c2nonc2N)c1CN(C)c1ccccc1)c1ccccn1 | inconclusive [activator, single point] | 
CCOC(=O)c1c(C)[nH]c(C)c1C(=O)CSc1nnc(-c2ccc(OC(F)F)cc2)o1 | inconclusive [activator, single point] | 
COc1ccc(-c2csc(NC(=O)[C@H](C)N3C(=O)C4CC=CCC4C3=O)n2)cc1OC (stereo partly drawn) | inconclusive [activator, single point] | 
CC1CCCCN1C(=O)C1CCCN(S(=O)(=O)c2cccc3nsnc23)C1 (stereo not drawn) |  | inactive: -5.21%
CCCC(=O)NC(=S)Nc1c(C)cc(Br)cc1C | inconclusive [activator, full curve] | 
